# Reference: patent US20230134580A1 (SHANGHAI HENLIUS BIOTECH, published 2023)
# Target: T1, human TIGIT (T cell immunoreceptor with Ig and ITIM domains), expressed on cells (human, UniProt Q495A1 22-244)
# T1 sequence: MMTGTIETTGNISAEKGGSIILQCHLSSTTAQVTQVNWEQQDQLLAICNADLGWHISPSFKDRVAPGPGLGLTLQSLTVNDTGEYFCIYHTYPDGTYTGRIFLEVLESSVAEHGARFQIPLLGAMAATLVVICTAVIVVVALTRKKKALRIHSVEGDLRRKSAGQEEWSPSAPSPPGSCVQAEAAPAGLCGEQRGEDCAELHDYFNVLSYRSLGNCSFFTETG
# Assay: cell-based or functional assay
binder,measurement,value
"2A3-LT-Fc (hotspot corrected 2A3, M to L and D to T), wild type Fc (Fc fusion) QVQLVESGGGVVQPGRSLRLSCAASGGSFSSYPMGWFRQAPGKERESVAAISSDLRFTYYADSVKGRFTISRDNSKNTLYLQMNSLRAEDTAVYYCAARTSGVGYYSRAQWYDYWGQGTLVTVSS[letters of human IgG1 Fc not shown]","EC50 (read off the curve), NFAT luciferase reporter, TIGIT blockade",~1 nM
